# According to paper PMC4242493:
# The list shows a part of the results. The list includes weakly bound sequences.
# Target: MaxL homodimer (UniProt P61244)
# Test: universal protein-binding microarray (PBM)
# Conditions: PBS-based mixture, 10 nM His-tagged protein dimer, 2% milk, 200 ng/uL BSA, 50 ng/uL salmon testes DNA, 0.02% TX-100; detection with Alexa 488 anti-His …; high values mean tight binding; most listed sequences are background and not binding sites; double strand, one strand shown
# Chain of UniProt P61244 (P61244 whole entry): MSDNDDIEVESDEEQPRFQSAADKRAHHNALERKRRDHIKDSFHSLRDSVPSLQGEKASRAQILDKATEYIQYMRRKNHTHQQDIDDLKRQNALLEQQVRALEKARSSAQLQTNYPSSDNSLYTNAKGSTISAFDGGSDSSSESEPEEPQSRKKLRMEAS
row,Sequence,binding signal (normalized occupancy)
1,AACGCCGC,0.0718
2,GGTCTTTA,0.0763
3,CACGCTTC,0.098
4,GCGAATGA,0.0779
5,GATTTCGC,0.069
6,AGCAGGTA,0.0762
7,AAGTGAGC,0.069
8,GGCGTCAA,0.0717
9,AAATTTCA,0.0744
10,AGGATAAG,0.0725
11,GTTTACCA,0.0757
12,ACGCCGTG,0.075
13,GAAGGTGA,0.071
14,AGTTCAAC,0.0774
15,GAGTGTGC,0.0774
16,GCGCTGCA,0.0708
17,GGAATCTA,0.0873
18,CCGCACTC,0.0756
19,AGTCATCG,0.0751
20,AGATGGTC,0.0826
21,CCATTTGC,0.0748
22,GAAATGCA,0.0772
23,AAGACGAT,0.0737
24,AGCTCATA,0.0703
25,GGGCCGGA,0.0677

row,Sequence,binding signal (normalized occupancy)
1,GGTACGCA,0.0798
2,AGGATTCA,0.0762
3,ACCACACT,0.0849
4,GAGCTCAA,0.0656
5,GCCAGCTA,0.0716
6,ATGCCTTG,0.0819
7,CGGCTGTA,0.07
8,GAGGGAAA,0.0787
9,CCCGTACA,0.0792
10,GAAATCTC,0.074
11,ACCGACTA,0.0676
12,GCAGGACC,0.0701
13,CGCTCGAG,0.0757
14,CGTTGTTA,0.0763
15,ACTTTACC,0.0744
16,AGTCGGAT,0.0718
17,AATCGATA,0.0789
18,GAGAGAGA,0.074
19,CTCCTATC,0.0801
20,AGGCTTAT,0.0808
21,AGAACCCC,0.0776
22,AGAAGCAA,0.0747
23,GAAGAACA,0.0777
24,CCAGGCAC,0.0765
25,CAGTTCAC,0.0717

row,Sequence,binding signal (normalized occupancy)
1,GTCCAACA,0.0759
2,TCACCAGA,0.0742
3,ACCCTTAA,0.0759
4,CAACTCGG,0.0686
5,GACATTCC,0.0736
6,GGACCAGA,0.0704
7,AGACGAAG,0.0673
8,ACATGGAT,0.101
9,GGCAGGAC,0.0699
10,CGGGAGCC,0.07
11,GCACCGTA,0.0707
12,AGCGGGCA,0.0695
13,ACCCCCTC,0.0819
14,ATACTTGC,0.08
15,AGTGAGGG,0.0773
16,ACGGTCGC,0.071
17,GATGACAC,0.0785
18,CGTAACAC,0.0802
19,GGTCTTAA,0.075
20,CGAGAGCG,0.071
21,CCGAGTTC,0.0705
22,CGTAAGCA,0.0776
23,ATTCGTAG,0.0806
24,CTGCAGTC,0.069
25,ACGATTAC,0.0835

row,Sequence,binding signal (normalized occupancy)
1,CTTTTTAC,0.0753
2,CTTAACAC,0.0808
3,AGACCAAA,0.0707
4,GAGAGCTC,0.0698
5,ATACGCCA,0.0747
6,CAATGGGC,0.0697
7,TAATCGGA,0.0682
8,CACGTCCA,0.0876
9,ACGGTTTG,0.0687
10,ATGCCGAG,0.0729
11,GCAACTCC,0.0726
12,AACACTAG,0.0804
13,ACCGTACG,0.0765
14,CGCCAGAC,0.0709
15,ACATCCGG,0.0742
16,CTCATAAC,0.0813
17,AGGGTAGG,0.0754
18,AGCATCTA,0.0749
19,CGGAGTCA,0.0757
20,AGAGCCGA,0.0723
21,GCATATTA,0.0814
22,CCTCCACA,0.08
23,ACCCCGGC,0.0753
24,GATTAAGC,0.0715
25,CGGACTGA,0.0701

row,Sequence,binding signal (normalized occupancy)
1,CACTCAAC,0.0738
2,CTTACGGA,0.0709
3,ACAGCGTA,0.0694
4,GCTGTCAC,0.0813
5,AGAGCTTA,0.0748
6,CCAGTGGA,0.072
7,GATACTAA,0.0759
8,ACAAAGCT,0.0696
9,ATCTACAG,0.0738
10,CGATTGAC,0.0757
11,AAAACGGA,0.0732
12,GTGCGAGA,0.0815
13,CGAACCAA,0.0713
14,CAAAGGCG,0.0772
15,ATTTACCG,0.0738
16,AAAAACAG,0.0754
17,TACGAATA,0.0783
18,TGGCCAAA,0.0757
19,GAGAAATC,0.0722
20,CGAACCGC,0.0674
21,CTTAGTGC,0.0762
22,AATAATTG,0.0775
23,ACACACGG,0.083
24,AAGTACAC,0.0837
25,AATCGGCC,0.0674

row,Sequence,binding signal (normalized occupancy)
1,CCACACGG,0.0835
2,GGACCGCA,0.0705
3,TACTGGAA,0.0727
4,GAGCATGC,0.113
5,CAAACCAC,0.0792
6,AAGATAGT,0.0795
7,TGTGGGAA,0.0844
8,ATCAGTAG,0.0762
9,CCGTGAAC,0.0745
10,GCACATCA,0.0851
11,CGCCCTAC,0.0709
12,CTAGTCTA,0.0707
13,ATACGACC,0.0781
14,CCAGTCCA,0.0734
15,AATACGAA,0.075
16,AGCCGAGG,0.0678
17,CAGGAAGA,0.0723
18,AGATTGCA,0.0748
19,CCTTGACG,0.0731
20,AACGCATT,0.0767
21,CACTGCGA,0.0739
22,CAGCCGGC,0.0623
23,ATCTCGAG,0.0767
24,GAGGGGCA,0.0793
25,CCTCGCGC,0.0791

row,Sequence,binding signal (normalized occupancy)
1,AGAGGGTC,0.0758
2,CTCACTAA,0.0787
3,CTGAAGTA,0.0676
4,AGATAAAC,0.0777
5,ACCGCTTG,0.0715
6,GTATTGCA,0.0814
7,CTCCACAG,0.0716
8,AGGAGCGG,0.0698
9,GAGACTTA,0.0723
10,ACAAGCCC,0.0761
11,AGCTACTA,0.0716
12,CCATAGTA,0.0805
13,GGGGCCAC,0.0726
14,CTATGTAA,0.0767
15,CTTTAGAA,0.0731
16,CAAACGAC,0.0706
17,AACCCAAG,0.074
18,GACATGAC,0.0811
19,AACCGAGT,0.07
20,AAAGAATT,0.0678
21,CGCCACTC,0.0736
22,AGAGGTTG,0.0687
